The source of these data is patent US10183008B2, “Treatment of prolonged status epilepticus” (University of South Carolina, priority 2011, dated 2019).

For this test, the system named is GABAA inhibitory postsynaptic currents (IPSCs). The note with it: for block of IPSC potentiation by flumazenil (BZD-site antagonist): FMZ 10 μM, CLB 10 μM, DZP 1 μM, STP 100 μM, n=4; for effect on IPSC decay: dentate gyrus granule cells, rats aged 5 to 65 days.

Molecules are shown by their SMILES.

Turning to `CN1C(=O)CC(=O)N(c2ccccc2)c2cc(Cl)ccc21` [CLB, clobazam], the “block of IPSC potentiation by flumazenil (BZD-site antagonist)” value (“block of IPSC potentiation by flumazenil” for short) is “is blocked by flumazenil”.
For `CC(C)(C)C(O)/C=C/c1ccc2c(c1)OCO2` (stereo not drawn) [STP, 1-(3,4-methylenedioxyphenyl)-4,4-dimethylpent-1-en-3-ol], the “potentiation of GABAA IPSC in the presence of the BZD agonist clobazam” value was “potentiates the GABAA IPSC”, the “block of IPSC potentiation by flumazenil” value is “but not STP” and the “effect on IPSC decay” value is given as “prolonged IPSC decay”.
For `CN1C(=O)CN=C(c2ccccc2)c2cc(Cl)ccc21` [DZP, diazepam], the “block of IPSC potentiation by flumazenil” value is given as “is blocked by flumazenil” and the “effect on IPSC decay” value is reported as “prolonged IPSC decay”.
